No constants are given. Whether binding was seen depends on the method and setting. For some assays here: In cells and extracts the contact can be indirect. Some binding calls cover weakened binding; strength is not graded here. For some assays here: Tags and fused reporters may be left off the sequences shown.
What was measured:
[1] = biological target: T1, N-terminally Flag-tagged TRIP4^Δ403-581 (human) (UniProt Q15650); experiment: co-IP; Flag/His-tagged TRIP4 variants precipitated from cell lysates with α-Flag-M2 magnetic beads (50 mM Tris-HCl pH 7.4, 150 mM NaCl, 0.5 mM EDTA, 0.1% Triton-X-100, 10% glycerol), eluted with 3xFlag peptide; western blot for ASCC1, ASCC2, ASCC3
T1 sequence: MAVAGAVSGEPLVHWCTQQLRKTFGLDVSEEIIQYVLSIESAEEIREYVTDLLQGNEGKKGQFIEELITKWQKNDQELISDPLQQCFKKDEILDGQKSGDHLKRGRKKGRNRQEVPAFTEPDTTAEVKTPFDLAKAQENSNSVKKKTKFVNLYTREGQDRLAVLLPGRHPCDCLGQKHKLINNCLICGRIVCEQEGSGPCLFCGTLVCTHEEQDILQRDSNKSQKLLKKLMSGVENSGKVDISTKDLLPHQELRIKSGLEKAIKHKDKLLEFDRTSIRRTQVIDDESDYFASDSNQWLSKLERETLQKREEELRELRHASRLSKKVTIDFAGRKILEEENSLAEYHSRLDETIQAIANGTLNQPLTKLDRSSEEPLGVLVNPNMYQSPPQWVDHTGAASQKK

Sequences of proteins named here, by UniProt entry; tags and fusion partners are left off. Residues count along the entry.
ASCC3 N-terminal region (ASCC3^NTR, residues 1-400) (Q8N3C0, residues 1-400): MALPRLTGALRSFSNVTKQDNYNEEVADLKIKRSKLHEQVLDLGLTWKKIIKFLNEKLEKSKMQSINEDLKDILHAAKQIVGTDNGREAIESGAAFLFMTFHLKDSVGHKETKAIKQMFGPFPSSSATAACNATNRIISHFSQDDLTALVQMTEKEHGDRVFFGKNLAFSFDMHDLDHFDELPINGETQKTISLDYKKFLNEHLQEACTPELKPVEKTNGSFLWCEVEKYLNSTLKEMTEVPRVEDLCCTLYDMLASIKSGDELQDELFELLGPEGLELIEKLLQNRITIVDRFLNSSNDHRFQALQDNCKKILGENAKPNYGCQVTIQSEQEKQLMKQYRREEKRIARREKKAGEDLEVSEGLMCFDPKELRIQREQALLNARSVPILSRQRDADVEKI
ASCC3 helicase region (ASCC3^HR, residues 401-2202) (Q8N3C0, residues 401-2202): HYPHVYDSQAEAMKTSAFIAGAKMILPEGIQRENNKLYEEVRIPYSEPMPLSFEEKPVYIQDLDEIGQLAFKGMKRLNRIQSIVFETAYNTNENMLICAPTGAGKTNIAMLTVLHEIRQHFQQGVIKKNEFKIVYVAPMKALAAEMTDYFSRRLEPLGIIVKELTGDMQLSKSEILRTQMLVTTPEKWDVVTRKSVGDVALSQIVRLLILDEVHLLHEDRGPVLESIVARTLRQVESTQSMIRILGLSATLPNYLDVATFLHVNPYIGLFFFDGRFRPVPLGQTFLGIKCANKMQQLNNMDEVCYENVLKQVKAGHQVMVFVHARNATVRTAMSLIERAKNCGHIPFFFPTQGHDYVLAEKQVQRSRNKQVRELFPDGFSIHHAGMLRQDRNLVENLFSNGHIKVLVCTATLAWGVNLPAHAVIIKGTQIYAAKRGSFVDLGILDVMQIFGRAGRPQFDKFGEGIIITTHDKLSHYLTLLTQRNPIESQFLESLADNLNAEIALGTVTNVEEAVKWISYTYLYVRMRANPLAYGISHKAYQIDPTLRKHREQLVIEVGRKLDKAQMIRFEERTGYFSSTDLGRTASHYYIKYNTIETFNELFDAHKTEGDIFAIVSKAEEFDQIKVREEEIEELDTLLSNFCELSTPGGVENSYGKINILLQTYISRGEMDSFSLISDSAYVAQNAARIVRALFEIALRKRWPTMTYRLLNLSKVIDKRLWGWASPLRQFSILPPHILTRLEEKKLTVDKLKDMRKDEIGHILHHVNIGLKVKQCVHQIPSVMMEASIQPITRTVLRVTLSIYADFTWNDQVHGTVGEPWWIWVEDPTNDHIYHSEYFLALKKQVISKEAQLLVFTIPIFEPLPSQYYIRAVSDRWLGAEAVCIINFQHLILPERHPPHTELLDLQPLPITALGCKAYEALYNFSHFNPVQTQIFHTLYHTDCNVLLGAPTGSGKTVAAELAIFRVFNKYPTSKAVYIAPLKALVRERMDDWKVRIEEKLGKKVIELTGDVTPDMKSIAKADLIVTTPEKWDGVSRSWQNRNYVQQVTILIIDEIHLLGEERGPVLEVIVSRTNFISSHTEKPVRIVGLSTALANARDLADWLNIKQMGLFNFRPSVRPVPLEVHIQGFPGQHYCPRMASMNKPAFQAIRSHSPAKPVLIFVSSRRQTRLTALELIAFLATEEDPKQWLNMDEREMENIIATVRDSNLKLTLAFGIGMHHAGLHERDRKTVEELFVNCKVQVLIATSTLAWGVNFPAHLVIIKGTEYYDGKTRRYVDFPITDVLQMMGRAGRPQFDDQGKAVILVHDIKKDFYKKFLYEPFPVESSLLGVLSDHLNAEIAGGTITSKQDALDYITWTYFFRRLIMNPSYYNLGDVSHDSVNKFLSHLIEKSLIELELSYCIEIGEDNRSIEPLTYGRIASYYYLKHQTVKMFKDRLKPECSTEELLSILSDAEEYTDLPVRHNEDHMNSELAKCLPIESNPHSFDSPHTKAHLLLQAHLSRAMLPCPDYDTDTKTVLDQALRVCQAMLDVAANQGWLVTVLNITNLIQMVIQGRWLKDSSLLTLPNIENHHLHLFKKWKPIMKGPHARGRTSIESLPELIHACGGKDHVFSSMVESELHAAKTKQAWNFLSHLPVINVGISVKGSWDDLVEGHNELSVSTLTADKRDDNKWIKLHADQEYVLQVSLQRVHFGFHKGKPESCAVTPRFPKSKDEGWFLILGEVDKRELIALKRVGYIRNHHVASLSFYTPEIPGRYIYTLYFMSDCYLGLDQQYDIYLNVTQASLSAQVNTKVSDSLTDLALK
UniProt Q8N9N2: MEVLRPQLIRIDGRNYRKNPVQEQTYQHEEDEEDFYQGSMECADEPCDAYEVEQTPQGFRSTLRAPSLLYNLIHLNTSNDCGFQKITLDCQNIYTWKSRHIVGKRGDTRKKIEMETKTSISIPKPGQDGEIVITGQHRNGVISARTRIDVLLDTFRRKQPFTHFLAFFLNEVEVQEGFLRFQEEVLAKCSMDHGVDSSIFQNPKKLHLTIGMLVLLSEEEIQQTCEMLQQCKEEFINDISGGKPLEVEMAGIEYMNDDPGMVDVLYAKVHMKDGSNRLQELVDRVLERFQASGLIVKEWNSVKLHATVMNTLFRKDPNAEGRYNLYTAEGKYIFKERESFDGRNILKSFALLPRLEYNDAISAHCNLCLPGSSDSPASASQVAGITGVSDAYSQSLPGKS

[2] = biological target: T2, C-terminally Flag-tagged TRIP4^Δ1-276 (human) (UniProt Q15650); experiment: as above
T2 sequence: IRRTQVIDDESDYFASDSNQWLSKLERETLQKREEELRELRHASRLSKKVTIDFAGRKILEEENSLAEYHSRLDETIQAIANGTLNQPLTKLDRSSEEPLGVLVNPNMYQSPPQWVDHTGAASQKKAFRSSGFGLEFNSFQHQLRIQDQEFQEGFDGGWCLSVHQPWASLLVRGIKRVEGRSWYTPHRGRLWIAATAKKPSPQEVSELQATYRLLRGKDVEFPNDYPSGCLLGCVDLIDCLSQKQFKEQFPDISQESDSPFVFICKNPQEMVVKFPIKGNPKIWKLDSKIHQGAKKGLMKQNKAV

[3] = biological target: T3, C-terminally Flag-tagged full-length TRIP4 (human) (UniProt Q15650); experiment: as above
T3 sequence: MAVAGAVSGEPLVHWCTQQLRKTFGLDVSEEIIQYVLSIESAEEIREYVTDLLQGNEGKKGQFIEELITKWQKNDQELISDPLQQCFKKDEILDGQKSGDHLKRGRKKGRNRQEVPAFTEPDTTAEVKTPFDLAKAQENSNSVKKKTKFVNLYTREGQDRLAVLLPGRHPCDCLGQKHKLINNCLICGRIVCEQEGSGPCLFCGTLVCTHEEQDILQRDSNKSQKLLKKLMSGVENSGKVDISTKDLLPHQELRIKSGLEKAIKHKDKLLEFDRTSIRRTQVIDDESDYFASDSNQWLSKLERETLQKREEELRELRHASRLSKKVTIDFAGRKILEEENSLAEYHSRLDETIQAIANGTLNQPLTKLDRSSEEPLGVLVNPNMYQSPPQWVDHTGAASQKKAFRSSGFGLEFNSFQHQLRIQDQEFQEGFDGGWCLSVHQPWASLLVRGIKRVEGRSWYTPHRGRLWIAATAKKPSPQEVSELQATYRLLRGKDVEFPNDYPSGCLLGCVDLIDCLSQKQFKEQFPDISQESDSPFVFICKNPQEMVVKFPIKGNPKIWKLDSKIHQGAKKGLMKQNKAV

[4] = biological target: T4, N-terminally Flag-tagged TRIP4^Δ1-276 (human) (UniProt Q15650); experiment: as above
T4 sequence: T2 sequence

[5] = biological target: T5, C-terminally Flag-tagged TRIP4^Δ403-581 (human) (UniProt Q15650); experiment: as above
T5 sequence: T1 sequence

[6] = biological target: T6, N-terminally Flag-tagged full-length TRIP4 (human) (UniProt Q15650); experiment: as above
T6 sequence: T3 sequence

[7] = biological target: ASCC3 N-terminal region (ASCC3^NTR, residues 1-400) (human) (UniProt Q8N3C0); experiment: SEC; analytical SEC, Superdex 200 3.2/300; 20 mM HEPES-NaOH pH 7.5, 250 mM NaCl, 5% glycerol, 1 mM DTT; 100 pmol ASCC3^HR mixed with other proteins in two to tenfold molar excess in 80 µl, 30 min on ice; fractions by SDS-PAGE; both purified
[8] = biological target: ASCC3 helicase region (ASCC3^HR, residues 401-2202) (human) (UniProt Q8N3C0); experiment: condition: 100 pmol ASCC3^HR, two to tenfold molar excess of the other protein, 80 µl; SEC; analytical SEC, Superdex 200 3.2/300; 20 mM HEPES-NaOH pH 7.5, 250 mM NaCl, 5% glycerol, 1 mM DTT; 100 pmol ASCC3^HR mixed with other proteins in two to tenfold molar excess in 80 µl, 30 min on ice; fractions by SDS-PAGE; both purified

In the case of “ASCC1 (activating signal co-integrator 1 complex subunit 1), endogenous (from UniProt Q8N9N2 1-400)”, the binding [1] is reported as “binds”, the binding [2] is reported as “no binding” and the binding [3] is reported as “binds”. The binding [4] was “no binding”, the binding [5] was “binds” and the binding [6] was “binds”.

B1: ASCC2 (activating signal co-integrator 1 complex subunit 2), endogenous (protein, UniProt Q9H1I8 1-757)
chain: MPALPLDQLQITHKDPKTGKLRTSPALHPEQKADRYFVLYKPPPKDNIPALVEEYLERATFVANDLDWLLALPHDKFWCQVIFDETLQKCLDSYLRYVPRKFDEGVASAPEVVDMQKRLHRSVFLTFLRMSTHKESKDHFISPSAFGEILYNNFLFDIPKILDLCVLFGKGNSPLLQKMIGNIFTQQPSYYSDLDETLPTILQVFSNILQHCGLQGDGANTTPQKLEERGRLTPSDMPLLELKDIVLYLCDTCTTLWAFLDIFPLACQTFQKHDFCYRLASFYEAAIPEMESAIKKRRLEDSKLLGDLWQRLSHSRKKLMEIFHIILNQICLLPILESSCDNIQGFIEEFLQIFSSLLQEKRFLRDYDALFPVAEDISLLQQASSVLDETRTAYILQAVESAWEGVDRRKATDAKDPSVIEEPNGEPNGVTVTAEAVSQASSHPENSEEEECMGAAAAVGPAMCGVELDSLISQVKDLLPDLGEGFILACLEYYHYDPEQVINNILEERLAPTLSQLDRNLDREMKPDPTPLLTSRHNVFQNDEFDVFSRDSVDLSRVHKGKSTRKEENTRSLLNDKRAVAAQRQRYEQYSVVVEEVPLQPGESLPYHSVYYEDEYDDTYDGNQVGANDADSDDELISRRPFTIPQVLRTKVPREGQEEDDDDEEDDADEEAPKPDHFVQDPAVLREKAEARRMAFLAKKGYRHDSSTAVAGSPRGHGQSRETTQERRKKEANKATRANHNRRTMADRKRSKGMIPS
For B1, the binding [1] was “binds”, the binding [2] was “no binding” and the binding [3] was “binds”. For the same molecule, the binding [4] was “no binding”, the binding [5] was “binds” and the binding [6] was “binds”.

B2: TRIP4, full length, co-produced with ASCC3^HR in insect cells (natural protein, human, UniProt Q15650 1-581, looked up)
chain: T3 sequence
B2 was tested, and the binding [7] was “no binding”.

B3: TRIP4^1-80 (domain or fragment, UniProt Q15650 1-80)
chain: MAVAGAVSGEPLVHWCTQQLRKTFGLDVSEEIIQYVLSIESAEEIREYVTDLLQGNEGKKGQFIEELITKWQKNDQELIS
B3 was tested, and the binding [8] was “no binding”.

B4: TRIP4^281-403 (domain or fragment, UniProt Q15650 281-403)
chain: QVIDDESDYFASDSNQWLSKLERETLQKREEELRELRHASRLSKKVTIDFAGRKILEEENSLAEYHSRLDETIQAIANGTLNQPLTKLDRSSEEPLGVLVNPNMYQSPPQWVDHTGAASQKKA
With B4 the binding [8] was “no binding”.

B5: TRIP4^403-581 (domain or fragment, UniProt Q15650 403-581)
chain: AFRSSGFGLEFNSFQHQLRIQDQEFQEGFDGGWCLSVHQPWASLLVRGIKRVEGRSWYTPHRGRLWIAATAKKPSPQEVSELQATYRLLRGKDVEFPNDYPSGCLLGCVDLIDCLSQKQFKEQFPDISQESDSPFVFICKNPQEMVVKFPIKGNPKIWKLDSKIHQGAKKGLMKQNKAV
For B5, the binding [8] was “no binding”.

B6: TRIP4^281-581 (domain or fragment, UniProt Q15650 281-581)
chain: QVIDDESDYFASDSNQWLSKLERETLQKREEELRELRHASRLSKKVTIDFAGRKILEEENSLAEYHSRLDETIQAIANGTLNQPLTKLDRSSEEPLGVLVNPNMYQSPPQWVDHTGAASQKKAFRSSGFGLEFNSFQHQLRIQDQEFQEGFDGGWCLSVHQPWASLLVRGIKRVEGRSWYTPHRGRLWIAATAKKPSPQEVSELQATYRLLRGKDVEFPNDYPSGCLLGCVDLIDCLSQKQFKEQFPDISQESDSPFVFICKNPQEMVVKFPIKGNPKIWKLDSKIHQGAKKGLMKQNKAV
B6 was tested, and the binding [8] was “no binding”.
